Experimental data taken from publication PMC10691697, “A small molecule exerts selective antiviral activity by targeting the human cytomegalovirus nuclear egress complex” (PLOS Pathogens, 2023).

Experiments:
[1] = tested on: HCMV expressing GFP (53-F BADGFP); conditions: 6 dpi, replicates
[2] = target: T1, UL50_C79S+UL53 (Human cytomegalovirus, UniProt P16794); experiment: biochemical; type: binding; conditions: replicates, read-out: normalized FRET signal relative to control without inhibitor
T1 construct: GST (N, cleaved yes); 13-residue glycine-serine linker […]; made in house; host or cells: E. coli BL21 (DE3) RIPL

[3] = HTRF assay without protein targets (interference); conditions: no protein, singlicate; for HTRF ratio for GK1: A665nm/A620nm * 10000
[4] = tested on: MCMV M50-M53; type: binding; conditions: MCMV M50-M53, replicates
[5] = target: T2, UL50_C54S+UL53 (Human cytomegalovirus, UniProt P16794); experiment: biochemical; type: binding; conditions: replicates, read-out: normalized FRET signal relative to control without inhibitor
T2 construct: GST (N, cleaved yes); 13-residue glycine-serine linker […]; made in house; host or cells: E. coli BL21 (DE3) RIPL

## C=CC(=O)Nc1cccc(Oc2cc(Cl)nc3[nH]ccc23)c1 [GK1]
[1]; 0.20 μM compound
  anti-HCMV: number of plaques relative to DMSO vehicle: 63.0000 and 77.0000 and 66.0000
[1]; 0.40 μM compound
  anti-HCMV: number of plaques relative to DMSO vehicle: 57.0000 and 60.0000 and 52.0000
[1]; 0.80 μM compound
  anti-HCMV: number of plaques relative to DMSO vehicle: 52.0000 and 42.0000 and 49.0000
[1]; 1.60 μM compound
  anti-HCMV: number of plaques relative to DMSO vehicle: 45.0000 and 42.0000 and 36.0000
[2]; 3.13 μM compound
  remaining activity at 3.13 µM: 100%
[2]; 6.25 μM compound
  remaining activity at 6.25 µM: 97%
[2]; 50.00 μM compound
  remaining activity at 50 µM: 50%
[3]; 0.5 microM
  HTRF ratio for GK1: 7386
[3]; 0.71 microM
  HTRF ratio for GK1: 7809
[3]; 1.01 microM
  HTRF ratio for GK1: 7909
[3]; 4.15 microM
  Fluorescence at 620 nm (GK1): 6502
[3]; 5.91 microM
  Fluorescence at 620 nm (GK1): 6707
[3]; 8.42 microM
  Fluorescence at 620 nm (GK1): 6521
[3]; 12 microM
  Fluorescence at 620 nm (GK1): 6638
[3]; 17.1 microM
  Fluorescence at 620 nm (GK1): 6601
[3]; 24.2 microM
  Fluorescence at 620 nm (GK1): 6467
[3]; 34.7 microM
  Fluorescence at 620 nm (GK1): 6177
[3]; 49.5 microM
  Fluorescence at 620 nm (GK1): 6154
[4]; 0.20 μM compound
  normalized FRET signal relative to control without inhibitor: 98.0000 and 101.0000 and 100.0000
[4]; 1.56 μM compound
  normalized FRET signal relative to control without inhibitor: 98.0000
[4]; 3.13 μM compound
  normalized FRET signal relative to control without inhibitor: 98.0000 and 97.0000 (2×)
[4]; 6.25 μM compound
  normalized FRET signal relative to control without inhibitor: 100.0000 and 95.0000 and 98.0000
[4]; 50.00 μM compound
  normalized FRET signal relative to control without inhibitor: 100.0000 and 97.0000 and 98.0000
[5]; 3.13 μM compound
  remaining activity at 3.13 µM: 76%
[5]; 6.25 μM compound
  remaining activity at 6.25 µM: 60%

“And” between values parts separate entries of the source, which are not always exact repeats. Equal values may be shown once. Read-outs that look alike come from different tables or passages of the source.
